# Among all 45,000 compounds or so, about 200 (0.44%) were called active. Roughly 7% stayed inconclusive and do not appear here. Calls come from the whole dose curve; as a rule, active = well fitted activation curve with a large enough effect; inconclusive = small, poorly fitted or top-dose-only effect; inactive = no such curve, though single readings can be large or run the other way. The list shows a part of the results.
# Assay: qHTS of TDP-43 Inhibitors: NCGC Sytravon Library Screen; note: 0% is about no effect; nearly all actives have a fitted effect of over 55% in size
# Settings: yeast TDP-43 toxicity rescue, BacTiter-Glo growth, 24 h; series mostly up to 46.1 µM; growth rescue (activation): at the top concentration
# Outline: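 TDP-43-expressing yeast, pregrown in raffinose, seeded at OD600 0.02 in galactose medium with compound for 24 hr at 30 deg C. Growth read by BacTiter-Glo luminescence, so rescue of toxicity appears as activation.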
row,SMILES,growth rescue (activation)
1,CCOC(=O)C1(C)CCN1C(=O)c1ccccc1Br (stereo not given),inactive: -4.19%
2,Cc1cc(NC(=O)c2ccc(Cl)cc2)c(C)cc1O,inactive: 0.258%
3,CC(=O)/C(N=Nc1ccc2c(c1)OCO2)=C(\C)O,inactive: 10.8%
4,O=c1[nH]nc(SCc2cc(Cl)ccc2Cl)c(=O)[nH]1,inactive: 7.73%
5,CCN(CC)CCOC(=O)c1ccc(NC(=O)CCCN2C(=O)S/C(=C/c3ccc(OC)cc3)C2=S)cc1,inactive: 8.63%
6,Cc1ccc(C(O)(C(=O)NNc2ccc3ccccc3n2)c2ccc(C)cc2)cc1,inactive: 17.4%
7,COc1ccc(S(=O)(=O)N2CCOCC2)cc1NC(=O)CSc1nc(C)c(C)c(C)n1,inactive: 14.7%
8,CCNS(=O)(=O)c1ccc(CCC(=O)O)cc1,inactive: -8.34%
9,CC(=O)NC(c1cccc(F)c1)c1nc(-c2csc3ccccc23)cs1 (stereo not given),inactive: 9.07%
10,CCOc1ccc(S(=O)(=O)N2CCCC(C(=O)N3CCN(CC)CC3)C2)cc1Cl (stereo not given),inactive: 3.28%
11,CCCC1=NN(c2ccc([N+](=O)[O-])cc2)C(=O)/C1=C\N(C)C,inactive: 13.8%
12,CCOC(=O)C1(CCc2ccccc2)CCN(C(=O)CN2CCOC2=O)CC1,inactive: 9.08%
13,COc1ccc(Cn2nnnc2C(c2cc3cccc(C)c3[nH]c2=O)N2CCN(C)CC2)cc1 (stereo not given),inactive: 6.97%
14,Cc1ccc(Cc2cnc(NC(=O)/C(C#N)=C/c3ccc(-c4ccccc4[N+](=O)[O-])o3)s2)cc1,inactive: 28.6%
15,CC(C)c1ccc(NCCC(=O)c2cccs2)cc1,inactive: 20.1%
16,COc1ccc(C(=O)Nc2noc3ccccc23)cc1,inactive: 4.47%
17,C=CCC1(CC=C)CCCN1C(=O)CC1C(=O)NCCN1Cc1cc(OC)cc(OC)c1 (stereo not given),inactive: 7.9%
18,Cc1cc(C)n(C(=O)CNC(=O)c2ccc(Cl)cc2Cl)n1,inactive: 22.7%
19,CCCSCC(=O)Nc1ncc2c(n1)-c1ccccc1CC2,inactive: 10.3%
20,O=C(CCCn1c(=O)c2sccc2n(Cc2cccc(Cl)c2)c1=O)NCc1ccc2c(c1)OCO2,inactive: 15.4%
21,Cc1ccccc1C(=O)NC1CC2CCCC(C1)N2C(=O)Nc1ccccc1 (stereo not given),inactive: 1.85%
22,c1nc(N2CCC3(CC2)OCCO3)c2[nH]cnc2n1,inactive: 17.1%
23,COCCOC(=O)c1sc2nc[nH]c(=O)c2c1C,inactive: -18.8%
24,CCOC(=O)c1ccc(NC(=S)N2CCCC(C(=O)N3CCCC3)C2)cc1 (stereo not given),inactive: 8.49%
25,O=C(CCCN1C(=O)c2ccccc2C1=O)Nc1nncs1,inactive: 2.87%
26,NS(=O)(=O)c1ccc(CCNC(=O)c2cc(=O)[nH]c3ccccc23)cc1,inactive: -5.18%
27,CS(=O)(=O)c1ccc(NCC2CCCO2)c([N+](=O)[O-])c1 (stereo not given),inactive: -13.3%
28,COc1cccc(NC(=S)N2C3CCCC2CC(NC(=O)C2CC2)C3)c1 (stereo not given),inactive: -1.65%
29,Cc1c(C(=O)CN2CCN(c3ccccc3)CC2)c2ccccc2n1C,inactive: 7%
30,N#C/C(=C/c1ccco1)C(N)=S,inactive: 6.85%

# Reference: PubChem BioAssay AID1347073 (National Center for Advancing Translational Sciences (NCATS), 2019)
